Test results from PubChem BioAssay AID463173 (ICCB-Longwood Screening Facility, Harvard Medical School, 2010).
Screen size: about 52,000 compounds; about 1,700 (3.3%) were called active. No stated cut-off is given here; in the data, active means survival mostly below about 52% (no sharp cut-off); inactive means mostly above about 56%. Some of the results follow.

system: Wild type; assay: growth inhibition of S. aureus wild type versus tarO mutant, primary screen, teichoic acid synthesis inhibitors, RN4220, OD600 (AID 463173); settings: S. aureus RN4220 wild type/DeltatarO growth, OD600, 18 h, hits give low values, screened at 18.75 µg/mL (by protocol)

Row | Compound | survival
1 | Cc1cccc(C)c1OCC(=O)Nc1c(C(=O)c2ccccc2)oc2ccccc12 | inactive: 70%
2 | CCc1ccccc1NC(=O)c1ncoc1-c1ccco1 | inactive: 89%
3 | COc1ccc(-c2c(C)nn3c(-c4ccccc4)cc(-c4ccccc4)nc23)cc1 | inactive: 122%
4 | Cc1ccc(NC(=O)CSc2nc3nccnc3c(=O)n2CCc2c[nH]c3ccccc23)c(C)c1 | inactive: 78%
5 | CCc1ccc(C(=O)c2cn(CC(=O)Nc3ccc(OC)cc3)c3cc4c(cc3c2=O)OCCO4)cc1 | inactive: 89%
6 | C=CCN1C(=O)C(C(=O)O)C(=O)c2ccccc21 (centres undefined) | inactive: 74%
7 | O=C(Nc1ccc(OC(F)(F)F)cc1)C(NS(=O)(=O)c1cccc2nsnc12)c1ccccc1 (centres undefined) | inactive: 62%
8 | Cc1cc(SCC(=O)Nc2ccc(C(F)(F)F)cc2)nc(=O)[nH]1 | inactive: 70%
9 | Cc1ccc(C)c(N2CCN(C(=O)c3cccn4c(=O)c5ccccc5nc34)CC2)c1 | inactive: 85%
10 | CCCCOC(=O)c1ccc(NC(=O)c2cc(=O)c3ccccc3o2)cc1 | inactive: 93%
11 | CCOc1ccc(NC(=O)c2ncn(-c3ccccc3)n2)cc1 | inactive: 91%
12 | CCn1nnc(NC(=O)C(C)(c2ccccc2)c2ccccc2)n1 | inactive: 109%
13 | Cc1ccc(-c2nnn3c2nc(N2CCC(C)CC2)c2ccccc23)cc1 | active: -2%
14 | Cc1cnc2c(c1)N1CCC2CC1 | inactive: 108%
15 | Cc1ccc(OCCSc2nc3ccccc3n2CC(=O)NC(C)C)cc1 | inactive: 94%
16 | O=C1CSC2(C(=O)N(Cc3c(F)cccc3Cl)c3ccccc32)N1c1ccc(F)c(F)c1 (centres undefined) | inactive: 83%
17 | O=C(CSc1ncc2c(n1)-c1cc(Cl)ccc1N(Cc1ccccc1)S2(=O)=O)NCc1ccccc1 | inactive: 70%
18 | Fc1ccc(Nc2c(-c3c[nH]c4ccccc34)nc3ccccn23)cc1 | inactive: 72%
19 | Cc1ccc(C(=O)Nc2nnc(S(=O)(=O)N3CCCc4ccccc43)s2)cc1 | inactive: 36%
20 | CCOc1ccc(S(=O)(=O)NCCc2csc3nc(-c4cccc(C)c4)nn23)cc1 | inactive: 77%
21 | COCCCNC(=O)C1CCN(C(=O)c2cc3sccc3n2Cc2ccc(Cl)cc2)CC1 | inactive: 74%
22 | Cc1cccc(CSc2ccc3nnc(CCNS(=O)(=O)c4ccccc4)n3n2)c1 | inactive: 79%
23 | COc1ccc(CCNC(=O)c2ccc(CSCc3ccc(C)cc3)o2)cc1OC | inactive: 75%

Row | Compound | survival
24 | COc1ccc(C(=O)Nc2ccc3nc(N4CCCCC4)cc(C)c3c2)cc1OC | inactive: 62%
25 | Cc1nc2c(C(=O)NCCc3ccccc3)c[nH]n2c(=O)c1Cc1ccccc1F | active: -15%
26 | COc1cccc(C(=O)Nc2ccc(C(=O)OCc3cc(=O)n4cc(C)sc4n3)cc2)c1 | inactive: 53%
27 | O=S(=O)(c1ccc(Cl)cc1)N1CCC(c2ccncc2)CC1 | inactive: 80%
28 | O=C(Nc1nnc(S(=O)(=O)N2CCOCC2)s1)c1cccc(Br)c1 | inactive: 51%
29 | NC(=O)Cn1c(-c2nonc2N)nc2ccccc21 | inactive: 109%
30 | COc1cc(NS(=O)(=O)c2cc3c(cc2C)n(C)c(=O)c(=O)n3C)cc(OC)c1 | inactive: 54%
31 | CCC(Sc1ccc2nnc(CCNS(=O)(=O)c3ccc(OC)cc3)n2n1)C(=O)OC (centres undefined) | inactive: 84%
32 | Cc1ccc(-c2cc3ncc4c(n3n2)-c2ccccc2OC4)cc1 | inactive: 76%
33 | COc1cc(NC(=O)NCCn2nnc3cc(S(=O)(=O)N(C)C)ccc32)cc(OC)c1OC | inactive: 56%
34 | COc1cc(NC(=O)c2cc3cc4ccc(OC)c(Cl)c4nc3s2)cc(OC)c1 | inactive: 73%
35 | O=C(OCc1ccc(Cl)cc1Cl)c1ccncc1 | inactive: 107%
36 | C=CCN1C(=O)C2(C(C#N)=C(N)Oc3n[nH]c(COC)c32)c2ccccc21 (centres undefined) | inactive: 118%
37 | Cc1nc2ccc(S(=O)(=O)NCC(=O)Nc3ccc(C)c(Cl)c3)cc2s1 | inactive: 50%
38 | Cc1cc(C)cc(NC(=O)CSc2nc3c(cnn3-c3ccc(F)cc3)c(=O)[nH]2)c1 | inactive: 65%
39 | COc1ccc(-c2nc3c4ccccc4n(CC(=O)Nc4ccc(C(C)=O)cc4)c(=O)n3n2)cc1 | inactive: 83%
40 | CCc1nn(CC(=O)N2CCN(c3cc(C)ccc3C)CC2)c(=O)c2cc3occc3n12 | inactive: 75%
41 | COc1ccc(CCNc2nc(SCc3ccc(F)cc3)nc3ccccc23)cc1OC | inactive: 124%
42 | O=S(=O)(Nc1ccc(-c2ccc(N3CCCCCC3)nn2)cc1)c1cccc(C(F)(F)F)c1 | inactive: 128%
43 | CCn1c(N2CCN(CC(=O)c3ccc(OC)cc3)CC2)nc2ccccc21 | inactive: 107%
44 | N#Cc1ccc(NC(=O)c2cc(-c3cccc(Cl)c3)on2)cc1 | inactive: 87%
45 | CCc1ccc(-c2nc(SCC(=O)NCC3CCCO3)c(-c3ccc(F)cc3)[nH]2)cc1 (centres undefined) | inactive: 87%
46 | CNC(=O)c1ccc(CSc2nc3cccnc3n2Cc2cccc(F)c2)cc1 | inactive: 128%

Row | Compound | survival
47 | Fc1ccccc1N1CCN(c2ncc3c(n2)CCN(Cc2ccc(Br)s2)C3)CC1 | inactive: 87%
48 | CCC(=O)Nc1nc(-c2ccc(OC)cc2)cs1 | inactive: 102%
49 | C=CCc1ccccc1OCCn1c(C2CC(=O)N(Cc3ccc(F)cc3)C2)nc2ccccc21 (centres undefined) | active: -16%
50 | Cc1ccc(C)c(NC(=O)N2CCc3cc(S(=O)(=O)N4CCC(C)CC4)ccc32)c1 | inactive: 74%
51 | CN1C(=O)/C(=C2\SC(=S)N(C(CC(=O)O)C(=O)O)C2=O)c2ccccc21 (centres undefined) | inactive: 113%
52 | Cc1ccc2nc(-c3cccc(Cl)c3)c(Nc3ccc4c(c3)OCO4)n2c1 | inactive: 83%
53 | CC(Oc1ccccc1)C(=O)OCc1cc(=O)n2nc(C(C)C)sc2n1 (centres undefined) | inactive: 115%
54 | COc1ccccc1CCNC(=O)C(=O)NCC(c1cccs1)S(=O)(=O)c1ccc(F)cc1 (centres undefined) | inactive: 74%
55 | Cc1ccsc1CN(C(=O)c1ccc(Br)cc1)C1CCS(=O)(=O)C1 (centres undefined) | inactive: 90%
56 | Cc1ccc(NC(=O)N2CCN3CCCCC3C2)cc1F (centres undefined) | inactive: 146%
57 | COc1ccccc1CNC(=O)c1ccc2c(c1)nnn2C1CCCC1 | inactive: 136%
58 | O=C(Nc1cccc(-c2nc3ccccc3[nH]2)c1)c1ccccc1F | inactive: 43%
59 | CCc1ccc(S(=O)(=O)c2nnn3c2nc(NCc2cccc(OC)c2)c2cc(Cl)ccc23)cc1 | inactive: 91%
60 | COc1ccc(Cl)cc1NC(=O)C1CCN(S(=O)(=O)c2ccc3c(c2)CCCN3C(=O)C2CCC2)CC1 | inactive: 72%
61 | Cc1cc(=O)[nH]c2nnc(SCC(=O)Nc3ccc(F)cc3F)n12 | inactive: 88%
62 | COc1ccccc1NC(=O)Cn1cc(C(=O)c2ccncc2)c(=O)c2cc(C)ccc21 | inactive: 127%
63 | COc1ccc(NC(=O)c2cc(S(=O)(=O)N3CCCCC3)cn2C)cc1Cl | inactive: 73%
64 | O=C(Nc1ccc(S(=O)(=O)N2CCCCC2c2cccnc2)cc1)c1ccc(F)cc1 (centres undefined) | inactive: 90%
65 | COc1ccc(CNn2cnnc2SCc2ccc(F)cc2)cc1OC | inactive: 103%
66 | O=C(Nc1ccc(Cl)cc1)c1cc2c(Cl)nc3ccccc3c2s1 | inactive: 123%
67 | Cc1cccc(N(C)C(=O)c2cc(S(=O)(=O)N3CCCCC3)c[nH]2)c1 | inactive: 81%
68 | CN(C)c1ccc(-c2noc(C3CC(=O)N(c4ccc5c(c4)OCCO5)C3)n2)cc1 (centres undefined) | inactive: 79%
69 | CCc1nnc2c3ccccc3nc(Nc3ccc(F)c(Cl)c3)n12 | inactive: 85%

Row | Compound | survival
70 | CCCC(CCC)C(=O)Nc1nnc2n1CCS2 | inactive: 85%
71 | COC(=O)CSc1nc2sc3c(c2c(=O)n1Cc1ccccc1)CCC(C(C)(C)C)C3 (centres undefined) | inactive: 80%
72 | COc1ccccc1C(=O)N1c2ccccc2C(C)(c2ccc(Cl)cc2)CC1(C)C (centres undefined) | active: 2%
73 | CCN(Cc1ccccc1)C(=O)CN1C(=O)CSc2ccc(S(=O)(=O)N(CC)CC)cc21 | inactive: 86%
74 | CCc1ccc(CNC(=O)c2nn(-c3ccc(OC)c(Cl)c3)c(=O)c3c2c2ccccc2n3C)cc1 | inactive: 83%
75 | CC(C)NC(=O)C(C)Oc1ccccc1 (centres undefined) | inactive: 115%
76 | COc1ccc(-c2c3c(nc4sc(C(=O)Nc5ccccc5F)c(N)c24)CC(C)(C)CC3=O)cc1 | inactive: 129%
77 | CCOc1ccccc1NC(=O)CN1C(=O)COc2ccc(S(=O)(=O)Nc3ccccc3)cc21 | inactive: 90%
78 | COc1ccc(-c2nn(CC(=O)NCc3ccccc3)c3c2cnc2ccc(F)cc23)cc1 | inactive: 121%
79 | Cc1nnc2sc(-c3ccc(N)cc3)nn12 | inactive: 108%
80 | O=C(Cn1c(=O)nc(-c2ccccc2F)c2cc(Cl)ccc21)Nc1ccccc1C(F)(F)F | inactive: 72%
81 | Cc1ccc(-c2nc3nc(C)cc(N4CCN(c5cccc(C)c5)C(C)C4)n3n2)cc1 (centres undefined) | inactive: 98%
82 | CCCCN(C)CCCNC(=O)CN1C(=O)CSc2ccc(S(=O)(=O)N3CCOCC3)cc21 | inactive: 73%
83 | O=C(NCc1cccs1)c1nn(-c2ccccc2F)nc1CO | inactive: 94%
84 | CCC1Oc2ccc(C)cc2N(CC(=O)N(Cc2cccnc2)Cc2cccc(OC)c2)C1=O (centres undefined) | inactive: 104%
85 | CCCCNC(=O)Cn1ncc2c(C)n(Cc3cccc(Cl)c3)c(C)c2c1=O | inactive: 93%
86 | Cc1ccc(NC(=O)C2CCCN(S(=O)(=O)c3ccc4[nH]c(=O)ccc4c3)C2)cc1C (centres undefined) | inactive: 90%
87 | COc1cc2oc(=O)c(CC(=O)NCCc3ccccc3F)c(C)c2cc1OC | inactive: 87%
88 | CCn1cc(C(=O)N2CCN(c3ccccc3)CC2)c(=O)c2cc(S(=O)(=O)N3CCCC3)ccc21 | inactive: 87%
89 | COc1cccc(C(=O)Nc2nc3nc(C)c(C)c(=O)n3[nH]2)c1 | inactive: 115%
